Reference: article PMC4336329 (PLoS ONE, 2015)
Among all 310,000 compounds or so, about 2,200 (0.71%) showed an effect of 50% or more. The effect is printed as a negative number. The list shows a part of the results.

biological target: human ether-à-go-go-related gene (hERG) potassium channel (human, UniProt Q12809); assay: primary screen, population patch clamp on CHO cells stably expressing hERG
Sequence (Q12809 whole entry, looked up): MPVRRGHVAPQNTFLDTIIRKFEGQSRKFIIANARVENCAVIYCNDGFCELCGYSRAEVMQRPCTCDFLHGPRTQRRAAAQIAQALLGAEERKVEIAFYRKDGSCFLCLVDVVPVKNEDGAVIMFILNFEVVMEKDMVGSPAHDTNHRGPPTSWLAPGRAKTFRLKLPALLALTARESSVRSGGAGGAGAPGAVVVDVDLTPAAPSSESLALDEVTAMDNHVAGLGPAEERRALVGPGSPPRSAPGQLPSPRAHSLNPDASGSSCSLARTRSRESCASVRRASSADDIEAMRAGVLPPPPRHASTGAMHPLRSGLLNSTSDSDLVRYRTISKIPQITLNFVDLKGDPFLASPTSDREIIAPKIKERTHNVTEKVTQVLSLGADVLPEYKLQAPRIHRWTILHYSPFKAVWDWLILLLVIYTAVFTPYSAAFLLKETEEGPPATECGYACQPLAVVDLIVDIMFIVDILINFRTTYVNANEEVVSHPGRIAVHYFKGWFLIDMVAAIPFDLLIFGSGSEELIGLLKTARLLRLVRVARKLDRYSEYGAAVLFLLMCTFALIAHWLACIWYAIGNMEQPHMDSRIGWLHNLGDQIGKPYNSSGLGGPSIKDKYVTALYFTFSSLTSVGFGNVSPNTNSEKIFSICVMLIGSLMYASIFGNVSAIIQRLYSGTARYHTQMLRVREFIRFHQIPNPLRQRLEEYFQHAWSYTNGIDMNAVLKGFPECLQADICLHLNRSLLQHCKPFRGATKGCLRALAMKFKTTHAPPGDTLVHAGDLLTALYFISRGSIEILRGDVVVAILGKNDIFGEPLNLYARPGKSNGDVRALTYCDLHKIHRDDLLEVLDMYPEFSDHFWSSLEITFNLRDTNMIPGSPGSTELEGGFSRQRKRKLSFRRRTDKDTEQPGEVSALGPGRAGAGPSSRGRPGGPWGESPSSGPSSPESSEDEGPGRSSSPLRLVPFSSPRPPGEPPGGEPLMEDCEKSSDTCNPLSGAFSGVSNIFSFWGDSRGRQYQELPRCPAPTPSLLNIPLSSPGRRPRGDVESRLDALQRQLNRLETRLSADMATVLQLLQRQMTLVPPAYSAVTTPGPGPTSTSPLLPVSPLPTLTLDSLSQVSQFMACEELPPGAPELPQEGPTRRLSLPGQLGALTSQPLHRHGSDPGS

Structure (SMILES)	hERG current change (%, negative = inhibition) at 1uM
O=C(NCC(c1cccnc1)N1CCOCC1)c1cccc(Cl)c1 (stereo not drawn)	-0.744%
Cc1cc(=O)oc2cc(NC(=O)COc3cccc(C(F)(F)F)c3)ccc12	11.3%
Cc1cc(NC(=O)c2cc(-c3ccccn3)nc3c(Cl)cccc23)no1	-8.24%
CON1C(=O)C(=O)N(OC)C2CCCCCC21 (stereo not drawn)	11.7%
O=C(c1ccc(Cl)c(S(=O)(=O)N2CCCCC2)c1)N1CCN(c2ccccc2)CC1	3.46%
CC1=C(n2ccnc2)CCC1=O	13.6%
Cc1onc(-c2ccccc2)c1C(=O)N1CCC2(CC1)OCCO2	11.1%
CCc1nc(SCc2nnc(-c3ccc(C)cc3)o2)c2c(C)c(C)sc2n1	16.4%
CCCCNC(=O)C1CC(c2cccc(F)c2)=NO1 (stereo not drawn)	9.48%
CCOC(=O)C1CCCc2c1[nH]c1ccc(Cl)cc21 (stereo not drawn)	19%
O=C(COc1ccc2ccc(=O)oc2c1)Nc1nccs1	2.46%
Cc1ccc(N(C(=O)C(F)(F)F)C(C(=O)NC2CCCCC2)c2ccncc2)cc1C (stereo not drawn)	15.4%
CCOC(=O)C(C(=O)Nc1nccs1)C1CCCCC1 (stereo not drawn)	10.9%
CC(C)[C@H](NS(=O)(=O)c1ccccc1)C(=O)OCC(=O)N1N=C(c2ccc(Cl)cc2)CC1c1ccco1 (stereo partly drawn)	2.31%
Cc1cc(C(=O)OCC(=O)NCc2cccs2)c2ccccc2n1	-1.53%
OC(CNCc1ccco1)Cn1c2ccc(Br)cc2c2cc(Br)ccc21 (stereo not drawn)	5.56%
CC(C)c1nc2cc(C(=O)N(C)Cc3ccc(F)cc3)ccc2o1	10.7%
CC(NC(=O)c1cc2c(=O)n(C)c3ccccc3c2n1C)c1ccc2c(c1)OCCO2 (stereo not drawn)	12.7%
COc1cccc(/C=N/n2c(-c3cc(C)[nH]n3)n[nH]c2=S)c1	9.14%
COC(=O)C1=C(c2ccc(S(C)(=O)=O)cc2)C[C@@H]2CC[C@H]1N2C(=O)NCCO	10.3%
CCCSc1nnc(N2C(=O)CC(c3ccsc3)C3=C2CCCC3=O)s1 (stereo not drawn)	8.25%
CCOC(=O)/C=C/c1ccccc1S(=O)(=O)NC(C)(C)C	-0.729%
Cc1ccc(S(=O)(=O)N2CCN(C(=O)CCOc3cc(C)ccc3C)CC2)cc1	3.36%

Structure (SMILES)	hERG current change (%, negative = inhibition) at 1uM
COc1ccc(NC(=O)Cn2nnc(C(=O)Nc3ccc(F)c(Cl)c3)c2N)cc1OC	5.08%
N#CC1=C(SCc2ccccc2)NC2=C(C(=O)CCC2)C1c1ccc2c(c1)OCO2 (stereo not drawn)	8.23%
O=C(Nc1nccs1)c1csc2c1CCCC2	10.7%
CCOc1ccc(S(=O)(=O)N2CCCC(C(=O)NC3CCCC3)C2)cc1 (stereo not drawn)	-2.67%
O=C(COC(=O)C1CCC1)NCCc1ccc(Cl)cc1Cl	16.5%
COC(=O)CNC(=O)C1Cc2ccccc2CN1S(=O)(=O)c1ccc(F)cc1 (stereo not drawn)	8.86%
Cn1c(=O)[nH]c(=O)c2c1nc(OC(=O)c1ccccc1)n2CC(O)COc1ccccc1 (stereo not drawn)	11.2%
Cc1nc2ccccn2c1C(=O)NN=C1CCCC1	-1.75%
Cc1cccc(N2CCN(C(=O)CS(=O)(=O)Cc3nc(-c4ccccc4F)oc3C)CC2C)c1 (stereo not drawn)	-2.75%
O=C(c1cc2ccccc2o1)N1CCN(S(=O)(=O)c2c(F)cccc2F)CC1	8.28%
CCN(CC)c1ccc(/C=C/[N+](=O)[O-])cc1	3.74%
COc1cccc(OCc2cc(C(=O)N(Cc3nccn3C)C(C)C)no2)c1	12.8%
C=C(C)COc1ccc(-c2ncncc2-c2ccc(Cl)cc2)c(O)c1	10.1%
Cc1[nH]n(-c2ccccc2)c(=O)c1/C=N/O	0.784%
CN(C)CCNC(=O)CNC(=S)N(CCCN1CCOCC1)Cc1cccs1	14.7%
O=C(Nc1ccc(Cl)c(Cl)c1)N1CCSC1c1ccco1 (stereo not drawn)	11%
O=C(COC(=O)c1cc([N+](=O)[O-])ccc1N1CCOCC1)Nc1cc(F)ccc1F	-5.03%
O=C(NCCn1cc(SCc2ccc(F)cc2)c2ccccc21)c1ccccc1F	5.36%
CCOC(=O)C1CCN(C(=O)c2cc(S(=O)(=O)N3CCCCC3)ccc2C)CC1	5.91%
Cc1nc2ccccc2n1-c1nc(-c2ccco2)cc(C(F)(F)F)n1	6.45%
O=C(OCc1cc(=O)n2c(n1)sc1ccccc12)c1cccc(O)c1	-2.02%
COc1cccc(C(=O)NNC(=O)C(=O)Nc2ccc(C)c(Cl)c2)c1	9.18%
